# Assay results taken from PMC12820563.
# This is one part of the list. The list includes weakly bound sequences.
# Target: T1, MBP-FoxP3dN (UniProt Q99JB6)
# T1 sequence: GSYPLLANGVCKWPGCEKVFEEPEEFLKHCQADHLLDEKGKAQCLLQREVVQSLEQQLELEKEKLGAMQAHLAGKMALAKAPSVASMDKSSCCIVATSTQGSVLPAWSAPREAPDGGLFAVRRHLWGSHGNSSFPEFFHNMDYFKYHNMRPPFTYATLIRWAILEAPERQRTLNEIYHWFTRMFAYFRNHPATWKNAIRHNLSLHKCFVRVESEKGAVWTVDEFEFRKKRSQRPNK
# Experiment: PD-seq (MBP pull-down with sequencing)
# Conditions: 20 mM Tris-HCl pH 7.5, 100 mM NaCl, 1.5 mM MgCl2, 0.4 uM protein, 0.1 uM dsDNA library, 30 min, room temperature, amylose pull-down; high values mean tight binding; double strand, one strand shown
row,Sequence,binding signal (RPM ratio (pull-down/input))
1,GATGATTGTTCTCCCAGCTGATGAATTTTACTGCTCGAGTAAACAAATTTTCCTAATCTTTCTGTTCAAGCGCCATCTAC,0.33
2,GATGATTGTTCTCCCAGCTGATGAATTATGCTCATCGAGTAAACAAATTTTCCTAATCTTTCTGTTCAAGCGCCATCTAC,0.95
3,GATGATTGTTCTCCCAGCTGATGAATTCCGGTTTTCGAGTAAACAAATTTTCCTAATCTTTCTGTTCAAGCGCCATCTAC,0.679
4,GATGATTGTTCTCCCAGCTGATGAATTCCGAATTTCGAGTAAACAAATTTTCCTAATCTTTCTGTTCAAGCGCCATCTAC,1.44
5,GATGATTGTTCTCCCAGCTGATGAATTCGTGATGTCGAGTAAACAAATTTTCCTAATCTTTCTGTTCAAGCGCCATCTAC,1.1
6,GATGATTGTTCTCCCAGCTGATGAATTGACAGCGTCGAGTAAACAAATTTTCCTAATCTTTCTGTTCAAGCGCCATCTAC,0.464
7,GATGATTGTTCTCCCAGCTGATGAATTTAATCCCTCGAGTAAACAAATTTTCCTAATCTTTCTGTTCAAGCGCCATCTAC,0.333
8,GATGATTGTTCTCCCAGCTGATGAATTCTCCTCTTCGAGTAAACAAATTTTCCTAATCTTTCTGTTCAAGCGCCATCTAC,0.198
9,GATGATTGTTCTCCCAGCTGATGAATTAGCTGCATCGAGTAAACAAATTTTCCTAATCTTTCTGTTCAAGCGCCATCTAC,1.25
10,GATGATTGTTCTCCCAGCTGATGAATTAATCTAGTCGAGTAAACAAATTTTCCTAATCTTTCTGTTCAAGCGCCATCTAC,0.302
11,GATGATTGTTCTCCCAGCTGATGAATTAACCCGATCGAGTAAACAAATTTTCCTAATCTTTCTGTTCAAGCGCCATCTAC,0.202
12,GATGATTGTTCTCCCAGCTGATGAATTCATATGCTCGAGTAAACAAATTTTCCTAATCTTTCTGTTCAAGCGCCATCTAC,0.869
13,GATGATTGTTCTCCCAGCTGATGAATTCTCGTATTCGAGTAAACAAATTTTCCTAATCTTTCTGTTCAAGCGCCATCTAC,0.974
14,GATGATTGTTCTCCCAGCTGATGAATTCTATGGATCGAGTAAACAAATTTTCCTAATCTTTCTGTTCAAGCGCCATCTAC,0.457
15,GATGATTGTTCTCCCAGCTGATGAATTTTATACATCGAGTAAACAAATTTTCCTAATCTTTCTGTTCAAGCGCCATCTAC,0.598
16,GATGATTGTTCTCCCAGCTGATGAATTGCAGCTATCGAGTAAACAAATTTTCCTAATCTTTCTGTTCAAGCGCCATCTAC,1.39
17,GATGATTGTTCTCCCAGCTGATGAATTGTTCTTTTCGAGTAAACAAATTTTCCTAATCTTTCTGTTCAAGCGCCATCTAC,0.447
18,GATGATTGTTCTCCCAGCTGATGAATTGAGGGTATCGAGTAAACAAATTTTCCTAATCTTTCTGTTCAAGCGCCATCTAC,0.714
19,GATGATTGTTCTCCCAGCTGATGAATTGGGTGTTTCGAGTAAACAAATTTTCCTAATCTTTCTGTTCAAGCGCCATCTAC,1.38
20,GATGATTGTTCTCCCAGCTGATGAATTGCCTCGGTCGAGTAAACAAATTTTCCTAATCTTTCTGTTCAAGCGCCATCTAC,0.565
21,GATGATTGTTCTCCCAGCTGATGAATTTGAATTATCGAGTAAACAAATTTTCCTAATCTTTCTGTTCAAGCGCCATCTAC,0.846

row,Sequence,binding signal (RPM ratio (pull-down/input))
1,GATGATTGTTCTCCCAGCTGATGAATTCGAGCTATCGAGTAAACAAATTTTCCTAATCTTTCTGTTCAAGCGCCATCTAC,0.48
2,GATGATTGTTCTCCCAGCTGATGAATTACCACGATCGAGTAAACAAATTTTCCTAATCTTTCTGTTCAAGCGCCATCTAC,0.336
3,GATGATTGTTCTCCCAGCTGATGAATTGCCAACATCGAGTAAACAAATTTTCCTAATCTTTCTGTTCAAGCGCCATCTAC,1.15
4,GATGATTGTTCTCCCAGCTGATGAATTTATCATTTCGAGTAAACAAATTTTCCTAATCTTTCTGTTCAAGCGCCATCTAC,3.08
5,GATGATTGTTCTCCCAGCTGATGAATTCTTTCGCTCGAGTAAACAAATTTTCCTAATCTTTCTGTTCAAGCGCCATCTAC,0.205
6,GATGATTGTTCTCCCAGCTGATGAATTCGAAATATCGAGTAAACAAATTTTCCTAATCTTTCTGTTCAAGCGCCATCTAC,0.344
7,GATGATTGTTCTCCCAGCTGATGAATTCCGCACATCGAGTAAACAAATTTTCCTAATCTTTCTGTTCAAGCGCCATCTAC,1.16
8,GATGATTGTTCTCCCAGCTGATGAATTGGTTGTCTCGAGTAAACAAATTTTCCTAATCTTTCTGTTCAAGCGCCATCTAC,4.48
9,GATGATTGTTCTCCCAGCTGATGAATTTATTCTTTCGAGTAAACAAATTTTCCTAATCTTTCTGTTCAAGCGCCATCTAC,0.542
10,GATGATTGTTCTCCCAGCTGATGAATTTTAAAGTTCGAGTAAACAAATTTTCCTAATCTTTCTGTTCAAGCGCCATCTAC,0.205
11,GATGATTGTTCTCCCAGCTGATGAATTTGGGAGGTCGAGTAAACAAATTTTCCTAATCTTTCTGTTCAAGCGCCATCTAC,0.291
12,GATGATTGTTCTCCCAGCTGATGAATTGCCGTCGTCGAGTAAACAAATTTTCCTAATCTTTCTGTTCAAGCGCCATCTAC,0.833
13,GATGATTGTTCTCCCAGCTGATGAATTTTCCTAATCGAGTAAACAAATTTTCCTAATCTTTCTGTTCAAGCGCCATCTAC,0.279
14,GATGATTGTTCTCCCAGCTGATGAATTGATCGCCTCGAGTAAACAAATTTTCCTAATCTTTCTGTTCAAGCGCCATCTAC,0.544
15,GATGATTGTTCTCCCAGCTGATGAATTGGAGAACTCGAGTAAACAAATTTTCCTAATCTTTCTGTTCAAGCGCCATCTAC,0.203
16,GATGATTGTTCTCCCAGCTGATGAATTTACCTGATCGAGTAAACAAATTTTCCTAATCTTTCTGTTCAAGCGCCATCTAC,0.352
17,GATGATTGTTCTCCCAGCTGATGAATTGGGTGGCTCGAGTAAACAAATTTTCCTAATCTTTCTGTTCAAGCGCCATCTAC,0.493
18,GATGATTGTTCTCCCAGCTGATGAATTGCAGGGATCGAGTAAACAAATTTTCCTAATCTTTCTGTTCAAGCGCCATCTAC,0.546
19,GATGATTGTTCTCCCAGCTGATGAATTAGTGTCGTCGAGTAAACAAATTTTCCTAATCTTTCTGTTCAAGCGCCATCTAC,1.73
20,GATGATTGTTCTCCCAGCTGATGAATTTTCCGGATCGAGTAAACAAATTTTCCTAATCTTTCTGTTCAAGCGCCATCTAC,0.147
21,GATGATTGTTCTCCCAGCTGATGAATTTGGCAACTCGAGTAAACAAATTTTCCTAATCTTTCTGTTCAAGCGCCATCTAC,5.44

row,Sequence,binding signal (RPM ratio (pull-down/input))
1,GATGATTGTTCTCCCAGCTGATGAATTGAAATCGTCGAGTAAACAAATTTTCCTAATCTTTCTGTTCAAGCGCCATCTAC,0.274
2,GATGATTGTTCTCCCAGCTGATGAATTGGGTACATCGAGTAAACAAATTTTCCTAATCTTTCTGTTCAAGCGCCATCTAC,0.508
3,GATGATTGTTCTCCCAGCTGATGAATTGGATTGATCGAGTAAACAAATTTTCCTAATCTTTCTGTTCAAGCGCCATCTAC,0.807
4,GATGATTGTTCTCCCAGCTGATGAATTATTTAGATCGAGTAAACAAATTTTCCTAATCTTTCTGTTCAAGCGCCATCTAC,1.78
5,GATGATTGTTCTCCCAGCTGATGAATTACCGTGTTCGAGTAAACAAATTTTCCTAATCTTTCTGTTCAAGCGCCATCTAC,0.527
6,GATGATTGTTCTCCCAGCTGATGAATTGCCGACGTCGAGTAAACAAATTTTCCTAATCTTTCTGTTCAAGCGCCATCTAC,0.478
7,GATGATTGTTCTCCCAGCTGATGAATTCTTAACCTCGAGTAAACAAATTTTCCTAATCTTTCTGTTCAAGCGCCATCTAC,0.208
8,GATGATTGTTCTCCCAGCTGATGAATTGGCACGTTCGAGTAAACAAATTTTCCTAATCTTTCTGTTCAAGCGCCATCTAC,0.464
9,GATGATTGTTCTCCCAGCTGATGAATTCATGTTTTCGAGTAAACAAATTTTCCTAATCTTTCTGTTCAAGCGCCATCTAC,1.41
10,GATGATTGTTCTCCCAGCTGATGAATTCGCCAGGTCGAGTAAACAAATTTTCCTAATCTTTCTGTTCAAGCGCCATCTAC,0.286
11,GATGATTGTTCTCCCAGCTGATGAATTGGACTAATCGAGTAAACAAATTTTCCTAATCTTTCTGTTCAAGCGCCATCTAC,0.267
12,GATGATTGTTCTCCCAGCTGATGAATTAATTCGTTCGAGTAAACAAATTTTCCTAATCTTTCTGTTCAAGCGCCATCTAC,0.368
13,GATGATTGTTCTCCCAGCTGATGAATTATTGCGTTCGAGTAAACAAATTTTCCTAATCTTTCTGTTCAAGCGCCATCTAC,2.15
14,GATGATTGTTCTCCCAGCTGATGAATTTCCGGAGTCGAGTAAACAAATTTTCCTAATCTTTCTGTTCAAGCGCCATCTAC,0.172
15,GATGATTGTTCTCCCAGCTGATGAATTGACATATTCGAGTAAACAAATTTTCCTAATCTTTCTGTTCAAGCGCCATCTAC,0.62
16,GATGATTGTTCTCCCAGCTGATGAATTTTGAATCTCGAGTAAACAAATTTTCCTAATCTTTCTGTTCAAGCGCCATCTAC,2.36
17,GATGATTGTTCTCCCAGCTGATGAATTCAATTTGTCGAGTAAACAAATTTTCCTAATCTTTCTGTTCAAGCGCCATCTAC,2.23
18,GATGATTGTTCTCCCAGCTGATGAATTTAGATTCTCGAGTAAACAAATTTTCCTAATCTTTCTGTTCAAGCGCCATCTAC,0.815
19,GATGATTGTTCTCCCAGCTGATGAATTCCAAATATCGAGTAAACAAATTTTCCTAATCTTTCTGTTCAAGCGCCATCTAC,0.564
20,GATGATTGTTCTCCCAGCTGATGAATTGTCTCTCTCGAGTAAACAAATTTTCCTAATCTTTCTGTTCAAGCGCCATCTAC,0.457
21,GATGATTGTTCTCCCAGCTGATGAATTTCGTGGGTCGAGTAAACAAATTTTCCTAATCTTTCTGTTCAAGCGCCATCTAC,0.54
